# Measured values reported in PMC4336329 (PLoS ONE, 2015).
# Out of some 310,000 compounds screened, about 2,200 (0.71%) showed an effect of 50% or more. Effects have a minus sign here. Some of the results follow.
# Molecular target: human ether-à-go-go-related gene (hERG) potassium channel (human, UniProt Q12809)
# Assay: primary screen, population patch clamp on CHO cells stably expressing hERG
# human ether-à-go-go-related gene (hERG) potassium channel, sequence (Q12809 whole entry, looked up): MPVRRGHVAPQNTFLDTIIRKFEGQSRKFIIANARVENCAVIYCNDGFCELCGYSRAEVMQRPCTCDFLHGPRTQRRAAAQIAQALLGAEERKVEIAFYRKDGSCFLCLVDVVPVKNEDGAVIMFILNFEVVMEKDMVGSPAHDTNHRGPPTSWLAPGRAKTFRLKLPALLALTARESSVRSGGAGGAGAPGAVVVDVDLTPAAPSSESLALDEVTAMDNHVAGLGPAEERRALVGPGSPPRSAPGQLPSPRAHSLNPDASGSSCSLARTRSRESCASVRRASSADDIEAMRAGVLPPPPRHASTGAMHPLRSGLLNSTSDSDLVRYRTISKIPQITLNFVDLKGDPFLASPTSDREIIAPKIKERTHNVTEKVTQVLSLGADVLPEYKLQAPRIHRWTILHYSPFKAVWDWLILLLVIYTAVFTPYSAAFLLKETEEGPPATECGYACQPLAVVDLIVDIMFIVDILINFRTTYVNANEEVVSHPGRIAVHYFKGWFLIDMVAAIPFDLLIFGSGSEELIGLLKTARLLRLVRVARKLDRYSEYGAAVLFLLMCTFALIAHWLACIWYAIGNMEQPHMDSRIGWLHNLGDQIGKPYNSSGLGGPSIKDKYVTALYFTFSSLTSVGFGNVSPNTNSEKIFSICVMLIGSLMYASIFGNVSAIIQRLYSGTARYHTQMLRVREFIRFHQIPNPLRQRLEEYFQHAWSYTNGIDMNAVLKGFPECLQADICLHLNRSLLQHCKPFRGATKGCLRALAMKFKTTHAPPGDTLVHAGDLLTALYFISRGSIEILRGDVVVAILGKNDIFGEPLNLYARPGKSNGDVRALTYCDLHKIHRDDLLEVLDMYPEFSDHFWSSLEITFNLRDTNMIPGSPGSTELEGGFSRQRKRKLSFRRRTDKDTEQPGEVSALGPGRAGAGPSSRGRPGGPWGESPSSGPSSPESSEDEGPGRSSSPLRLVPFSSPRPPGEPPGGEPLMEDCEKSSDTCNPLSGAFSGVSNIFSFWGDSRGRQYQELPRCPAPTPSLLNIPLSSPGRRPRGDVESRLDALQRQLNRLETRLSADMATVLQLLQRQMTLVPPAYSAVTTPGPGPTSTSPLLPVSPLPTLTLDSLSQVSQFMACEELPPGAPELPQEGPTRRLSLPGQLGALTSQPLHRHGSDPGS
row,SMILES,"hERG current change (%, negative = inhibition) at 1uM [%]"
1,Cn1c(SCC(=O)N/N=C/c2ccccn2)nnc1-c1ccccc1,12
2,COC(=O)c1ccc(NC(=O)CNC(=O)C2CCCCC2)cc1,11
3,Cn1c(=O)[nH]c(=O)c2c1nc(NCCCn1ccnc1)n2CCOc1ccccc1,-1.2
4,COc1ccccc1N(CC(=O)NCCSCc1ccccc1)S(C)(=O)=O,6.27
5,O=C(NNC(=O)C1COc2ccccc2O1)c1cccc([N+](=O)[O-])c1 (centres unmarked),15.3
6,CCOC(=O)N1CCN(c2ccc(Cl)c(Cl)c2)CC1,2.62
7,COc1ccccc1NC(=S)NCc1ccccc1,9.89
8,Cc1ccccc1NS(=O)(=O)c1ccc(C(=O)NCC(C)(C)N2CCOCC2)cc1,5.35
9,COc1ccc2c(C=O)cn(C)c2c1,15.5
10,CCN(CC)C(=O)CSc1nc2ccccc2c(=O)[nH]1,7.12
11,COc1cccc(CC2(CO)CCCN(Cc3cc(F)ccc3-n3cccn3)C2)c1 (centres unmarked),-85.1
12,Cc1n[nH]c(C)c1CCC(=O)N/N=C/C=C/c1ccccc1,-10.3
13,O=[N+]([O-])c1ccc2c(c1)C(O)n1ncnc1S2 (centres unmarked),9.82
14,O=[N+]([O-])c1cccc(-c2c(-c3ccccc3)ncc3cc(F)ccc23)c1,8.37
15,COc1cc(CN2CCNC(=O)C2CC(=O)N(C)Cc2cccnc2)cc(OC)c1 (centres unmarked),8.67
16,COc1ccc(N2CCN(c3nc(C)c(C)c(=O)[nH]3)CC2)cc1,14
17,COc1ccc(CCNC(=O)Cn2nnc(-c3ccc(OC)c(OC)c3)n2)cc1OC,-0.964
18,C=C1CCC(N(O)c2cc(C)on2)C(=C)CCC2C1CC2(C)C (centres unmarked),11.2
19,CCOC(=O)CSc1nc(N(C)C)nc(N(C)C#N)n1,3.15
20,Cc1nc(C)c(CC(=O)N/N=C/c2ccc(O)cc2)c(=O)[nH]1,11.3
21,O=C(NCc1ccco1)Nc1ccc([N+](=O)[O-])cc1,-2.06
22,OC(COc1ccc(CN2CCCCO2)cc1)CN1CCCCC1 (centres unmarked),9.02
23,CCOP(=O)(OCC)c1cc(CC)ccc1O,9.92

row,SMILES,"hERG current change (%, negative = inhibition) at 1uM [%]"
1,COc1ccc2oc(C)c(NC(C)=O)c2c1,5.96
2,CCN=C1SC(C(=O)Nc2cccc(C)c2)CC(=O)N1CC (centres unmarked),-8.59
3,COc1ccc(CCNC(=O)CSc2nc(N)c3c(C)c(C)oc3n2)cc1OC,11.9
4,O=C(NC(=S)Nc1ccccc1N1CCCC1)c1cccc(F)c1,-0.071
5,CCOC(=O)/C=C/c1ccc(C(F)(F)F)cc1S(=O)(=O)NC(C)(C)C,-0.159
6,O=C(NC1CCCCCC1)C1CCN(c2nc3ccccc3o2)CC1,6.91
7,Cc1nnc(SCc2cc(=O)[nH]c(N3CCN(Cc4ccccc4)CC3)n2)s1,4.26
8,Cc1cccc(C)c1NC(=O)C1CCCN1S(=O)(=O)c1ccc(-c2ccc(=O)[nH]n2)s1 (centres unmarked),-30.7
9,COc1ccc(CCNC(=O)c2cnc(C)cn2)cc1,17
10,COc1cc(C(=O)Nc2ccc3nc(N4CCN(C)CC4)cc(C)c3c2)cc(OC)c1OC,-5.28
11,CN(NC(=O)NN)c1ncc(C(F)(F)F)cc1Cl,1.54
12,Br.COc1ccc(OCC(=O)NN2Cc3ccccc3C2=N)cc1,3.25
13,CCN(C(=O)COC(=O)CNS(=O)(=O)c1ccc(SC)c([N+](=O)[O-])c1)C1CCCCC1,15.5
14,O=Cc1ccc(OCc2nnsc2Cl)cc1,15.3
15,COc1ccc(C2(c3ccc(O)cc3O)CC(c3ccccc3Cl)NC(=S)N2)cc1 (centres unmarked),11.5
16,COc1ccccc1NC(=O)N1CCN(CCc2ccccc2)CC1,0.333
17,COc1ccc(OC)c(Nc2nc(N)c([N+](=O)[O-])c(NC3CCCCC3)n2)c1,7.2
18,COc1ccc(C(=O)C[n+]2ccc(N)c(C)c2C)cc1.[Br-],16.1
19,COc1ccc(Cl)cc1C(=O)Nc1ccc(S(=O)(=O)N2CCCC2)cc1,17.4
20,CC(C)Oc1ccc(C2CC(=O)N(c3cccc(Br)c3)C2=O)cc1 (centres unmarked),19.5
21,CCOC(=O)COc1ccc2c(=O)c(-c3ccccc3OC)coc2c1,14.9
22,Cc1cc(=O)n(C)c(=O)n1CCCNc1ccccc1.O=C(O)C(=O)O,0.128
23,COc1cc(CCCN2C(=O)C(=O)NC[C@H]2Cc2cccc3ccccc23)cc(OC)c1OC,2.52

row,SMILES,"hERG current change (%, negative = inhibition) at 1uM [%]"
1,Cc1ccc(S(=O)(=O)N(c2nc(N(C)C)nc(N(C)C)n2)n2cnnc2)cc1,19.8
2,Cc1ccccc1-c1nc(CN2CCC(C(=O)NC3CC3)CC2)c(C)o1,2.7
3,O=C(Nc1ccccc1Cl)NC1(C(=O)NCC2CCCO2)CCCCC1 (centres unmarked),15.9
4,CCOc1ccc(S(=O)(=O)n2ccc(C)n2)cc1,6.03
5,O=C1/C(=C\c2ccc(-c3ccccc3[N+](=O)[O-])o2)C(c2ccccc2)=NN1c1ccccc1,12.3
6,COC(=O)C(Sc1nc(C)cc(C)c1C#N)c1ccccc1 (centres unmarked),9.2
7,CCCCN1CNC(=S)N(c2ccccc2OCC)C1,11.3
8,Cc1oc2c(c(=O)c1C)C(=O)CC(c1ccccc1)C2 (centres unmarked),4.78
9,CC(C)CC1NC(=O)N(CCCCN2C(=O)c3ccccc3C2=O)C1=O (centres unmarked),6.97
10,COc1ccccc1-n1cnnc1SCc1csc(-c2ccccc2)n1,8.32
11,Cc1cccc(C)c1OCC(=O)Nn1c(C)nc2ccccc2c1=O,-7.76
12,COc1cc(/C=N/NC(=O)C(NC(=O)c2ccccc2)c2n[nH]c(=O)c3ccccc23)ccc1OCC(N)=O (centres unmarked),4.47
13,CCN1CCN(C(=O)CS(=O)(=O)Cc2nc(-c3ccccc3C)oc2C)CC1,12.3
14,Cc1cccc2sc(NC(=O)CN(C)S(=O)(=O)c3ccc(Br)s3)nc12,9.84
15,O=C(Nc1ccc(NC(=O)c2ccccc2Cl)nc1)c1ccncc1,1.95
16,COCCCN1CN(S(=O)(=O)c2cccs2)c2nc3ccccc3nc21,3.93
17,O=C(/C=C/c1ccccc1)NC(=S)Nc1ccc(CN2CCOCC2)cc1,-9.68
18,COc1cc(CO)cc(Br)c1OCC(=O)O,20.3
19,FC(F)(F)C(Oc1nc(Nc2ccc(Cl)cc2)nc(N2CCOCC2)n1)C(F)(F)F,11.9
20,O=C(NC(=S)NC1CCCC1)c1ccccc1,8.04
21,O=C(c1cccc(F)c1)N1CCN(c2cccc(C(F)(F)F)c2)CC1,3
22,Cc1ccc(C(NC(=O)NCCCN2CCOCC2)=C(Cl)Cl)cc1F,5.09
23,Cc1oc2c(C)c(O)ccc2c(=O)c1-c1nncn1-c1ccccc1,13.8

row,SMILES,"hERG current change (%, negative = inhibition) at 1uM [%]"
1,COc1ccccc1CNC(=O)COc1ccccc1OC,7.74
2,Cc1nc2c(c(C)nn2-c2ccccc2)c(C)c1Cl,7.19
3,COc1ccc(/C=N/Nc2nccnc2Cl)cc1,0.804
4,CS(=O)(=O)Nc1cccc(C2=NN(C(=O)c3ccco3)C(c3ccco3)C2)c1 (centres unmarked),0.506
5,CCOCc1nnc(NC(=O)c2cc(Cl)ccc2OC)s1,2.17
6,O=C(NCCc1cccc(Cl)c1)c1cccnc1,3.74
7,CC(C)(CO)Nc1nc(Cl)nc(NC2CCCCC2)n1,9.48
8,Cc1c(C(=O)C(=O)N2CCN(Cc3ccc4c(c3)OCO4)CC2)c2ccccc2n1C,12.5
9,Cc1cccc(-n2ncc3c2CCCC3NC(=O)CC(F)(F)F)c1C (centres unmarked),7.67
10,O=C1Nc2ccccc2C12OCC1(CO2)COC2(OC1)C(=O)Nc1ccccc12 (centres unmarked),9.99
11,O=C(CSc1nnc2c(n1)[nH]c1ccccc12)NCc1ccco1,5.94
12,C=CCN1C(=O)CSc2ccc(C(=O)NCc3ccco3)cc21,-3.06
13,O=C(COc1ccc(Nc2ccccc2)cc1)Nc1ccncc1,1.07
14,CCc1nnc2c(N(C)C)nc3ccccc3n12,-1.42
15,CC(=O)Nc1ccc2c(c1)nc1n2CCOC1,-0.134
16,S=C(NCCc1ccncc1)Nc1ccccc1,17.2
17,CCC(Oc1cccc(Cl)c1)C(=O)N1CCCN(C)CC1 (centres unmarked),15.7
18,CN1CCN(/C=N/c2c(C#N)cnn2C)CC1,5.43
19,O=[N+]([O-])c1ccc(N2CCCCCC2)c([N+](=O)[O-])c1,4.86
20,O=C(Nc1ccc(Cl)c(Cl)c1)C1C2C=CC3(O2)C1C(=O)N(CCN1CCCCC1)C3C(=O)NC1CCCCC1 (centres unmarked),-16
21,COc1cc(C2SCC(=O)Nc3c2c(C)nn3-c2ccccc2)cc(OC)c1OC (centres unmarked),2.47
22,COc1ccc(S(=O)(=O)Nc2ccc3c(c2)n(C)c(=O)n3C)cc1OC,12.8
23,CC(C(=O)Nc1ccc(F)c(F)c1F)N(C)CC(=O)Nc1ccccc1Br (centres unmarked),9.69
